In paper PMC10716077 one finds binding data, which are given here for 19 molecules.

The target of experiment [1] is T1, GST–Ino2 TAD2 (aa 101–135) (S. cerevisiae) (UniProt P26798).
T1 sequence: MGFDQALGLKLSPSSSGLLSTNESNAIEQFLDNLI
Description: pull-down; GST fusions (from E. coli) immobilized on GSH sepharose, incubated with total protein extract from E. coli containing the HA fusion; washed twice with buffer A1, eluted with free GSH; anti-HA blot; only the target purified.

The target of experiment [2] is T2, GST–Ino2 (comprising TAD1 + TAD2, aa 1–135) (S. cerevisiae) (UniProt P26798).
T2 sequence: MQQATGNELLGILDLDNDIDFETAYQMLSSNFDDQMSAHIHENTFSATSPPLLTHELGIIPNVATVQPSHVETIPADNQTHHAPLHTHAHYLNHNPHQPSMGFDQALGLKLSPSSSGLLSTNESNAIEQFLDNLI
The description is as above.

Experiment [3] has as its target T3, GST–Ino2 TAD1 (aa 1–35) (S. cerevisiae) (UniProt P26798).
T3 sequence: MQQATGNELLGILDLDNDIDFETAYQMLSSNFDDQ
Described as above.

Experiment [4] concerns the target T4, GST–Aro80 TAD (aa 846–950) (S. cerevisiae) (UniProt Q04052).
T4 sequence: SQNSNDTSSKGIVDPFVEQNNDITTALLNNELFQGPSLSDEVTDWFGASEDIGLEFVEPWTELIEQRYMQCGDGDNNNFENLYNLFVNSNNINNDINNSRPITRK
The description is as above.

In experiment [5] the target is T5, GST–Flo8 TAD (aa 726–799) (S. cerevisiae) (UniProt P40068).
T5 sequence: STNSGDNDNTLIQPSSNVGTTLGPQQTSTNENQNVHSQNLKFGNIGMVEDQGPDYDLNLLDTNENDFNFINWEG
Described as above.

For experiment [6], the target named is T6, GST–Leu3 TAD (aa 841–886) (S. cerevisiae) (UniProt P08638).
T6 sequence: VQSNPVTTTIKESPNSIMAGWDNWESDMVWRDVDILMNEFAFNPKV
Described as above.

Experiment [7] deals with T7, GST–Rap1 TAD (aa 630–671) (S. cerevisiae) (UniProt P11938).
T7 sequence: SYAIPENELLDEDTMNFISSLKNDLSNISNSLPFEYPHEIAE
Described as above.

Experiment [8] concerns the target T8, GST–Swi5 TAD (aa 1–85) (S. cerevisiae) (UniProt P08153).
T8 sequence: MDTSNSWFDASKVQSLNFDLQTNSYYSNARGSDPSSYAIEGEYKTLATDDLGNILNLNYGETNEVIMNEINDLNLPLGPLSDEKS
Described as above.

Experiment [9] has as its target T1, GST–Ino2 TAD2 (aa 101–135) (S. cerevisiae). Kind of experiment: pull-down; GST fusions (from E. coli) immobilized on GSH sepharose, incubated with total protein extract from S. cerevisiae transformants containing the HA fusion; washed twice with buffer A1, eluted with free GSH; anti-HA blot; only the target purified.

Where a chain is given by its changes, count along the chain named. Names may count otherwise. Results are given in words; binding and its absence hold for the method and conditions named. In cells and extracts the contact can be indirect. Some binding calls cover weakened binding; strength is not graded here. Where a sequence is shown, tags or fusion partners need not be part of it.

B1: HA-Bdf1 aa 350–436 (domain or fragment, UniProt P35817 350-436)
chain: NLPTYFDYVKEPMDLGTIAKKLNDWQYQTMEDFERDVRLVFKNCYTFNPDGTIVNMMGHRLEEVFNSKWADRPNLDDYDSDEDSRTQ
For B1, the binding result in experiment [1] is recorded as “no binding”.

B2: HA3-Toa1 aa 1–143 (domain or fragment, UniProt P32773 1-143)
chain: MSNAEASRVYEIIVESVVNEVREDFENAGIDEQTLQDLKNIWQKKLTETKVTTFSWDNQFNEGNINGVQNDLNFNLATPGVNSSEFNIKEENTGNEGLILPNINSNNNIPHSGETNINTNTVEATNNSGATLNTNTSGNTNAD
For the molecule B2, the figures for the binding result in [2], in experiment [3] and in [1] were “binds”, “binds” and “no binding”, respectively.

B3: Toa1 ABD1 (aa 1–143) L38A K39A (domain or fragment, UniProt P32773 1-143)
chain: B2 chain with L38A, K39A
Take B3: in [3], the binding result is “binds”.

B4: Toa1 ABD1 (aa 1–143) V21A R22A (domain or fragment, UniProt P32773 1-143)
chain: B2 chain with V21A, R22A
For B4, in [3], the binding entry is on record as “binds”.

B5: HA-Toa1 synthesized in E. coli (HA3-TOA1) (protein, UniProt P32773 1-286)
chain: MSNAEASRVYEIIVESVVNEVREDFENAGIDEQTLQDLKNIWQKKLTETKVTTFSWDNQFNEGNINGVQNDLNFNLATPGVNSSEFNIKEENTGNEGLILPNINSNNNIPHSGETNINTNTVEATNNSGATLNTNTSGNTNADVTSQPKIEVKPEIELTINNANITTVENIDDESEKKDDEEKEEDVEKTRKEKEQIEQVKLQAKKEKRSALLDTDEVGSELDDSDDDYLISEGEEDGPDENLMLCLYDKVTRTKARWKCSLKDGVVTINRNDYTFQKAQVEAEWV
As for B5, the binding entry in experiment [4] is “no binding”; in experiment [5], “binds”; in experiment [2], “binds”; in experiment [3], “binds”; in experiment [1], “binds”; in [6] it was “binds”. The binding entry was “binds” in [7] and “no binding” in [8].

B6: HA-Toa1 aa 215–286 (domain or fragment, UniProt P32773 215-286)
chain: TDEVGSELDDSDDDYLISEGEEDGPDENLMLCLYDKVTRTKARWKCSLKDGVVTINRNDYTFQKAQVEAEWV
Regarding B6, in experiment [2], the binding result is “binds”.

B7: HA-Bdf1 aa 437–686 (domain or fragment, UniProt P35817 437-686)
chain: GDYDDYESEYSESDIDETIITNPAIQYLEEQLARMKVELQQLKKQELEKIRKERRLARGSKKRGKRSKGRSGSKNASSKGRRDKKNKLKTVVTYDMKRIITERINDLPTSKLERAIDIIKKSMPNISEDDEVELDLDTLDNHTILTLYNTFFRQYESSSGASNGLDGTSGVTRDASSLSPTSAGSRKRRSKALSQEEQSRQIEKIKNKLAILDSASPLSQNGSPGQIQSAAHNGFSSSSDDDVSSESEEE
On to B7, for which, in experiment [1], the binding entry is recorded as “no binding”.

B8: HA-Bdf1 aa 132–272 (domain or fragment, UniProt P35817 132-272)
chain: APAPPPEPDMNNLPQNPIPKHQQKHALLAIKAVKRLKDARPFLQPVDPVKLDIPFYFNYIKRPMDLSTIERKLNVGAYEVPEQITEDFNLMVNNSIKFNGPNAGISQMARNIQASFEKHMLNMPAKDAPPVIAKGRRSSAQ
For the molecule B8, in experiment [1], the binding result is listed as “no binding”.

B9: HA-Toa1 aa 226–286 (domain or fragment, UniProt P32773 226-286)
chain: DDDYLISEGEEDGPDENLMLCLYDKVTRTKARWKCSLKDGVVTINRNDYTFQKAQVEAEWV
For B9, in experiment [2], the binding result was “binds”.

B10: HA-Bdf1 aa 273–349 (domain or fragment, UniProt P35817 273-349)
chain: EDAPIVIRRAQTHNGRPKRTIHPPKSKDIYPYESKKPKSKRLQQAMKFCQSVLKELMAKKHASYNYPFLEPVDPVSM
For the molecule B10, the binding entry in experiment [1] is “no binding”.

B11: HA-Toa2 synthesized in E. coli (HA3-TOA2) (protein, UniProt P32774 1-122)
chain: MAVPGYYELYRRSTIGNSLVDALDTLISDGRIEASLAMRVLETFDKVVAETLKDNTQSKLTVKGNLDTYGFCDDVWTFIVKNCQVTVEDSHRDASQNGSGDSQSVISVDKLRIVACNSKKSE
For B11, in [2], the binding entry is reported as “binds weakly”.

B12: HA-Toa1 aa 210–286 (domain or fragment, UniProt P32773 210-286)
chain: SALLDTDEVGSELDDSDDDYLISEGEEDGPDENLMLCLYDKVTRTKARWKCSLKDGVVTINRNDYTFQKAQVEAEWV
For B12, the binding result in [2], in experiment [3] and in [1] was “binds” throughout.

B13: Toa1 ABD2 (aa 210–286) R253A K255A R257A K259A (domain or fragment, UniProt P32773 210-286)
chain: B12 chain with R44A, K46A, R48A, K50A
Regarding B13, the binding entry in experiment [3] and in experiment [1] was “binds” throughout.

B14: Toa1 ABD2 (aa 210–286) I269A R271A (domain or fragment, UniProt P32773 210-286)
chain: B12 chain with I60A, R62A
Regarding B14, the binding entry in [3] and in experiment [1] was “binds” each time.

B15: Toa1 ABD2 (aa 210–286) F276A K278A (domain or fragment, UniProt P32773 210-286)
chain: B12 chain with F67A, K69A
Turning to B15, the binding result in [3] and in [1] was “binds” throughout.

B16: Toa1 ABD2 (aa 210–286) K250A V251A (domain or fragment, UniProt P32773 210-286)
chain: B12 chain with K41A, V42A
On to B16, for which the binding result in [3] and in [1] was “binds” each time.

B17: HA3-Toa1 aa 144–286 (domain or fragment, UniProt P32773 144-286)
chain: VTSQPKIEVKPEIELTINNANITTVENIDDESEKKDDEEKEEDVEKTRKEKEQIEQVKLQAKKEKRSALLDTDEVGSELDDSDDDYLISEGEEDGPDENLMLCLYDKVTRTKARWKCSLKDGVVTINRNDYTFQKAQVEAEWV
In the case of B17, the binding result in experiment [2], in experiment [3] and in experiment [1] was “binds” throughout.

B18: HA-Toa1 aa 220–286 (domain or fragment, UniProt P32773 220-286)
chain: SELDDSDDDYLISEGEEDGPDENLMLCLYDKVTRTKARWKCSLKDGVVTINRNDYTFQKAQVEAEWV
Consider B18, for which the binding result in experiment [2] is on record as “binds”.

B19: HA-Bdf2 (full-length), synthesized in S. cerevisiae (protein, UniProt Q07442 1-638)
chain: MSRTNMDTRHAHSALLAAPQSATANSRSSNSSSESSSNKNNINVGVGDDSGNVSAVSIDDGPHFRDIFHYGHEENYKLASSGITNLNSSSHAHQTLSPISISNASTPESFPEHPLGLERETEPALEAEMEAEELPPHQSKYLLSSIKATKRLKDARPFLKPVDPIALNIPHYFNYVQTPMDLSLIETKLQGNVYHSVEQVTSDFKTMVDNCLNFNGPESSISSMAKRIQKYFEKKLSAMPPRVLPASALKKTSRNRKKNEDMDSPLVIRRSVSTTNDNIGESGNREGVSGGRPKRTIHPPKSKDLFDIYENSKPKSKTLQKKFRTCLKILKVLMSKKNSDINFPFLQPVDPIALNLPNYFDVVKNPMDLGTISNNLMNWKYKTIDQFVDDLNLVFYNCFQFNPEGNEVHSMGKKLKELFNFHWLENQDILNEIETDSDLEEDNYSSSYSSDDEYDDEDINENDITNPAIQYLEQKLKKMEVELQQLKRQELSKLSKERKRKHLGKTLLRRKAMKHSVDDLKKSITDKINELSDLEMNGMIRIIKNSLPADEILTSNEDEIEIDLDILDEATIARIYERYFEKKNNNNSKRKLSGNYSTAPTNKKKKTLKFLEKDEIINNNNYSDSEEDSSDSSDSDSD
In the case of B19, the binding result in experiment [9] was “no binding”.
